Data on 172 sequences can be found in article PMC6212790.

The list shows a part of the results. At the low end of the ranking the order means little.

This assay addresses T1, GST-Rok (full length) (UniProt O34857).
T1 sequence: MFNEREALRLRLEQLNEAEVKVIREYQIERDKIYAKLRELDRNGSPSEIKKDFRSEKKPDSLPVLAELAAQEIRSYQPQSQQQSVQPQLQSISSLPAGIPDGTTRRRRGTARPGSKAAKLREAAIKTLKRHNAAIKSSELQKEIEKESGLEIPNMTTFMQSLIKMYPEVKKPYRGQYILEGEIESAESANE
Briefly: protein binding microarray.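 Also: rank score from −0.5 (least bound) to 0.5 (best bound).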 The note with it: Rok is a gene silencer of Bacillus subtilis; high values mean tight binding; most listed sequences are background and not binding sites; double strand, one strand shown.
The sequence AATTGCCC gave a binding signal of -0.11 E-score.

For AACCAGTA, the binding signal came to 0.285 E-score.

For the sequence CACGTTGC, the binding signal is -0.144 E-score.

The sequence CTGCTATC displayed a binding signal of 0.0933 E-score.

The sequence CTTCTCAC came in with a binding signal of -0.193 E-score.

Consider AAAATTGA, for which the binding signal was determined as 0.214 E-score.

CCGATCCA came in with a binding signal of 0.0174 E-score.

As for CCAATAAC, the binding signal is 0.00293 E-score.

Turning to AATGCAAC, the binding signal is 0.164 E-score.

In turn, ATCGTAAT displayed a binding signal of 0.213 E-score.

The sequence AGGCACGA came in with a binding signal of -0.0894 E-score.

Consider CCGTAAGA, for which the binding signal came out at 0.0085 E-score.

Sequence AGCGTACG yielded a binding signal of 0.146 E-score.

On to GTACCAAC, for which the binding signal came out at 0.0142 E-score.

Consider TCCAAACA, for which the binding signal is -0.0748 E-score.

CGTTCCAA showed a binding signal of 0.101 E-score.

Sequence AATACTAT yielded a binding signal of 0.359 E-score.

On to GTATCGGA, for which the binding signal was -0.205 E-score.

On to TCTGTGCA, for which the binding signal worked out at 0.0704 E-score.

Sequence AATTATCC came in with a binding signal of 0.185 E-score.

As for CGTCATAC, the binding signal was determined as 0.0132 E-score.

In turn, AGCGACAT showed a binding signal of 0.0948 E-score.

On to AAGTATTG, for which the binding signal came to 0.203 E-score.

Turning to AAATTGCG, the binding signal was determined as 0.0994 E-score.

Sequence TCTACTCA registered a binding signal of 0.206 E-score.

The sequence AAAAAGGT came in with a binding signal of 0.0208 E-score.

In turn, AGGTTCAC had a binding signal of -0.189 E-score.

For the sequence CGGAATAA, the binding signal came to 0.0916 E-score.

CTTGGCCC: the binding signal was -0.312 E-score.

In the case of CCGACCAC, the binding signal was -0.391 E-score.

As to GTATAGAA, the binding signal amounted to 0.329 E-score.

For the sequence CTCCCTCA, the binding signal is -0.269 E-score.

ATCGCATG displayed a binding signal of 0.00366 E-score.

Regarding GTTAGAAC, the binding signal stood at 0.0808 E-score.

CAGTGAAG had a binding signal of -0.317 E-score.

In turn, CCCGCTAA returned a binding signal of -0.146 E-score.

Take AAAGCCGG: the binding signal is -0.147 E-score.

Turning to GCCCCTCC, the binding signal was -0.32 E-score.

Turning to ACGTTGCG, the binding signal was -0.0944 E-score.

With AGTGTGCC, the binding signal is -0.061 E-score.

GGCTCCAA came in with a binding signal of -0.281 E-score.

On to AATGTGAC, for which the binding signal came to 0.0254 E-score.

Consider CGGGAGTA, for which the binding signal was -0.076 E-score.

The sequence TGACATAA gave a binding signal of 0.0752 E-score.

As for CCACGCTA, the binding signal was 0.0112 E-score.

With GGGCGTAC, the binding signal is -0.0506 E-score.

CGTTTCTA came in with a binding signal of 0.283 E-score.

CAAACGGA showed a binding signal of 0.0334 E-score.

Regarding ATGCTTAC, the binding signal was -0.0838 E-score.

ACGAAGAC showed a binding signal of -0.064 E-score.

On to ATCTGCAG, for which the binding signal was found to be 0.238 E-score.

The sequence GAGGTCCA returned a binding signal of -0.0564 E-score.

Turning to CTCATTAA, the binding signal was -0.101 E-score.

Take GAAAGGTA: the binding signal was 0.194 E-score.

Take CTATATCC: the binding signal is 0.0894 E-score.

Turning to TGGATAAA, the binding signal stood at 0.0935 E-score.

With CTGGGGTC, the binding signal was -0.366 E-score.

CACTTTAG: the binding signal is -0.146 E-score.

ATCGGACG returned a binding signal of -0.104 E-score.

CTTTATGC returned a binding signal of -0.139 E-score.

In turn, ACGCGACT came in with a binding signal of -0.0984 E-score.

AGACGTAT showed a binding signal of 0.133 E-score.

As to GCTGGATA, the binding signal is -0.108 E-score.

As to CGCTGGGA, the binding signal is -0.324 E-score.

Regarding GAACCTCC, the binding signal is -0.289 E-score.

Consider GATAAAAA, for which the binding signal is 0.212 E-score.

TACCGGCA gave a binding signal of -0.0258 E-score.

For CTCTCCTA, the binding signal was -0.0294 E-score.

In the case of ATAATCTG, the binding signal was -0.00843 E-score.

AATTTCAA displayed a binding signal of 0.117 E-score.

Regarding AGTGAACC, the binding signal is -0.281 E-score.

In the case of CTATCGAG, the binding signal stood at 0.0507 E-score.

In the case of CTGTCAGA, the binding signal is -0.0485 E-score.

For the sequence ATGAAGTA, the binding signal stood at 0.207 E-score.

ACGCAACC yielded a binding signal of 0.0646 E-score.

In turn, CCGCCTCG displayed a binding signal of -0.297 E-score.

With TACAGTAA, the binding signal worked out at 0.287 E-score.

Turning to AAGCGCGA, the binding signal amounted to 0.109 E-score.

CACAATTA displayed a binding signal of 0.177 E-score.

Take ACCGAGTC: the binding signal was found to be 0.0913 E-score.

For the sequence CAGTCCAG, the binding signal is -0.25 E-score.

Sequence CCTAGGAA showed a binding signal of -0.0674 E-score.

AGTAATCA registered a binding signal of 0.0154 E-score.

Sequence CTCACTTC registered a binding signal of -0.126 E-score.

Sequence TAGTCTCA showed a binding signal of -0.115 E-score.

CCGTACCC: the binding signal is -0.0819 E-score.

Sequence AAGACTGG returned a binding signal of -0.0941 E-score.

As for CACATGGC, the binding signal came out at 0.0767 E-score.

In the case of ATTGGAGC, the binding signal is -0.09 E-score.

In turn, CTAGTTGC displayed a binding signal of 0.281 E-score.

In turn, ATGACATC had a binding signal of -0.0238 E-score.

For GCAGATAA, the binding signal was found to be 0.173 E-score.

On to AGTTAATC, for which the binding signal came to 0.2 E-score.

CGTGGAAC returned a binding signal of -0.15 E-score.

Regarding TAGGGAGA, the binding signal is -0.229 E-score.

ACATAGCT showed a binding signal of 0.15 E-score.

Sequence GGCCTCCC displayed a binding signal of -0.446 E-score.

As for AAATACAA, the binding signal was 0.255 E-score.

For AGCAACTA, the binding signal stood at 0.231 E-score.

Sequence ACGCTCAG came in with a binding signal of -0.0715 E-score.

The sequence TCTTTGAA returned a binding signal of -0.0119 E-score.

AATGTCCT gave a binding signal of -0.0926 E-score.

On to GGTTGATA, for which the binding signal stood at 0.118 E-score.

For the sequence TTGACCAA, the binding signal was determined as 0.036 E-score.

With ACTAATTC, the binding signal was found to be 0.359 E-score.

In turn, AATGTCCG came in with a binding signal of -0.0312 E-score.

ACCTTCGC: the binding signal is 0.0444 E-score.

In the case of TACGAAGA, the binding signal stood at 0.222 E-score.

CAAGTCCC displayed a binding signal of -0.3 E-score.

In the case of AAATTCTA, the binding signal was 0.402 E-score.

On to AATGAAGC, for which the binding signal was -0.0835 E-score.

As to CATCACTC, the binding signal is 0.0678 E-score.

Consider GAGGTTGC, for which the binding signal was -0.0928 E-score.

The sequence TAACCATA displayed a binding signal of 0.115 E-score.

The sequence AAAGACGT returned a binding signal of -0.0127 E-score.

As to GTCGCCTA, the binding signal is -0.0954 E-score.

CACGGTGG yielded a binding signal of -0.193 E-score.

Sequence AATATTTA returned a binding signal of 0.325 E-score.

For the sequence CACCTTAC, the binding signal is 0.0353 E-score.

Sequence CTGACTAA came in with a binding signal of 0.009 E-score.

In turn, AAGTCTTG registered a binding signal of -0.119 E-score.

The sequence AAGATAGA returned a binding signal of 0.175 E-score.

CAAGGGCG returned a binding signal of -0.301 E-score.

ATCGTGTG yielded a binding signal of -0.0227 E-score.

CCTCGCCG yielded a binding signal of -0.322 E-score.

In the case of AGAAAGAC, the binding signal is -0.0288 E-score.

Take CTCCGTGC: the binding signal was -0.149 E-score.

Sequence CGTATGGC showed a binding signal of -0.145 E-score.

Take AGTCATAC: the binding signal was 0.018 E-score.

The sequence TCGTCAAA returned a binding signal of -0.0353 E-score.

CGCGCTCC returned a binding signal of -0.232 E-score.

With CGTCACAA, the binding signal is -0.0647 E-score.

With CCTTTACC, the binding signal is -0.217 E-score.

In turn, CGTCTCAA had a binding signal of -0.0469 E-score.

In the case of AGATGAAT, the binding signal turned out to be 0.225 E-score.

AGCATCCC registered a binding signal of -0.18 E-score.

On to GGTAGAGA, for which the binding signal turned out to be 0.0752 E-score.

Turning to AACGAAAT, the binding signal worked out at 0.331 E-score.

In turn, CCATTCCG gave a binding signal of -0.00915 E-score.

Regarding GAACCCAA, the binding signal is -0.176 E-score.

As to GAACGGTA, the binding signal is 0.255 E-score.

AGGTTTAA displayed a binding signal of 0.00862 E-score.

For GCTCCCCA, the binding signal is -0.366 E-score.

On to ATGCAAAA, for which the binding signal came to 0.086 E-score.

Regarding CACTAATA, the binding signal is 0.277 E-score.

ATAATAGG gave a binding signal of 0.167 E-score.

Regarding ATCTATGA, the binding signal turned out to be 0.178 E-score.

Sequence AATCCTTC came in with a binding signal of -0.167 E-score.

GACCGACA gave a binding signal of -0.0167 E-score.

Take GCAGGAGA: the binding signal was -0.192 E-score.

In the case of GAAGATAA, the binding signal is 0.117 E-score.

For AACTACAG, the binding signal came out at 0.337 E-score.

Sequence CTGCAGCA registered a binding signal of 0.213 E-score.

CGATTTCC registered a binding signal of -0.0112 E-score.

Sequence AAGATTAT came in with a binding signal of 0.289 E-score.

ACGCGGCC gave a binding signal of -0.24 E-score.

Regarding AAGGCTAT, the binding signal was -0.199 E-score.

With AAAGATGC, the binding signal was -0.0831 E-score.

In turn, GCTTTCTA returned a binding signal of 0.224 E-score.

In the case of GTCACTAA, the binding signal is -0.0154 E-score.

Consider AAACGCAG, for which the binding signal is -0.146 E-score.

In turn, ATCCTGAC gave a binding signal of -0.142 E-score.

GGGATCAA displayed a binding signal of 0.0221 E-score.

In the case of CAGCGTCA, the binding signal is -0.205 E-score.

For the sequence TAACAGTA, the binding signal stood at 0.355 E-score.

CCCCCAGC: the binding signal is -0.422 E-score.

For the sequence CTAAAGCA, the binding signal is -0.0104 E-score.

For ACCTGCGT, the binding signal was -0.189 E-score.

Take AGCATGGC: the binding signal was -0.327 E-score.

For AAACCGGC, the binding signal was -0.0499 E-score.

CGCAACCG gave a binding signal of -0.092 E-score.

On to ATGTAGCA, for which the binding signal was 0.233 E-score.
